Some of the results follow.

B1: PhoQ; a variant is named by its letters at X, in order, P23837 (parent)
chain: MKKLLRLFFPLSLRVRFLLATAAVVLVLSLAYGMVALIGYSVSFDKTTFRLLRGESNLFYTLAKWENNKLHVELPENIDKQSPTMTLIYDENGQLLWAQRDVPWLMKMIQPDWLKSNGFHEIEADVNDTSLLLSGDHSIQQQLQEVREDDDDAEMTHSVAVNVYPATSRMPKLTIVVVDTIPVELKSSYMVWSWFIYVLSANLLLVIPLLWVAAWWSLRPIEALAKEVRELEEHNRELLNPATTRELTSLVRNLNRLLKSERERYDKYRTTLTDLTHSLKTPLXXLQXXLRSLRSEKMSVSDAEPVMLEQISRISQQIGYYLHRASMRGGTLLSRELHPVAPLLDNLTSALNKVYQRKGVNISLDISPEISFVGEQNDFVEVMGNVLDNACKYCLEFVEISARQTDEHLYIVVEDDGPGIPLSKREVIFDRGQRVDTLRPGQGVGLAVAREITEQYEGKIVAGESMLGGARMEVIFGRQHSAPKDE

This experiment covers variants of B1. The experiment in a line: enrichment ratio after two sorts for PhoP signalling (ratio (wild type AVST 3.29)); higher = more functional. The settings on record: with PhoP (E. coli).
As for AKKF, the enrichment ratio is at most 0.25. As to IGEV, the enrichment ratio is at most 0.25. In the case of FDPG, the enrichment ratio was at most 0.25.

Turning to LECS, the enrichment ratio was determined as 1.03. With SSPL, the enrichment ratio was found to be 1.2. Under NIVY stands at most 0.25; under FFKK, at most 0.25. For FAKP, the enrichment ratio was at most 0.25. Consider YDLC, for which the enrichment ratio is at most 0.25. HWET: the enrichment ratio was at most 0.25. As to KVMN, the enrichment ratio is at most 0.25. With IPVG, the enrichment ratio was at most 0.25.

In the case of QHQV, the enrichment ratio is at most 0.25. Consider AYTM, for which the enrichment ratio was at most 0.25. As for LSDN, the enrichment ratio was at most 0.25.

In the case of NKLC, the enrichment ratio was at most 0.25. Take HSRK: the enrichment ratio was at most 0.25. In the case of EYDS it was at most 0.25; in that of QAMY, at most 0.25; in that of VQEV, at most 0.25. In the case of KLCI it was at most 0.25; in that of KPMI, at most 0.25; in that of TIEH, 27.9.

ALYW: the enrichment ratio is at most 0.25. Under YTML stands 5.16.

On to PCSR, for which the enrichment ratio is at most 0.25.

Take PNNR: the enrichment ratio is at most 0.25. Consider NHLY, for which the enrichment ratio is at most 0.25. For the variant VWWT, the enrichment ratio is at most 0.25. GARD: the enrichment ratio is at most 0.25. In the case of LAFV, the enrichment ratio is 0.348. For the variant TVGF, the enrichment ratio was determined as 18.5. Turning to TNLD, the enrichment ratio was found to be 0.487.

Consider HNEG, for which the enrichment ratio is at most 0.25.

In the case of VKMP, the enrichment ratio is at most 0.25.

With WSLY, the enrichment ratio came out at 0.984. As to WPLN, the enrichment ratio was at most 0.25. In the case of FEAI it was at most 0.25; in that of RGSG, at most 0.25. As to SPDN, the enrichment ratio was at most 0.25.

Consider RHKS, for which the enrichment ratio is at most 0.25. As for TGQI, the enrichment ratio was 7.66. In the case of PPNE it was at most 0.25; in that of SSNF, 1.62. Regarding NKRT, the enrichment ratio was at most 0.25. As for RDRG, the enrichment ratio is at most 0.25.

LSHW: the enrichment ratio was determined as 0.321. Take KKTS: the enrichment ratio was at most 0.25.

Consider AGPS, for which the enrichment ratio is at most 0.25. WWLW: the enrichment ratio is at most 0.25.

Turning to VITR, the enrichment ratio is at most 0.25. In the case of ACLY it was 15.2. Take SHHM: the enrichment ratio was at most 0.25.

VDRY: the enrichment ratio was at most 0.25. As for RTYT, the enrichment ratio was at most 0.25.

As to VPTK, the enrichment ratio is at most 0.25.

Consider WFSW, for which the enrichment ratio is at most 0.25. In the case of PAYS, the enrichment ratio was at most 0.25. As for FEGT, the enrichment ratio was at most 0.25. Consider YVIG, for which the enrichment ratio is at most 0.25.

In the case of TRQA, the enrichment ratio is at most 0.25. Under RIFT stands at most 0.25; under GCIP, at most 0.25; under GFAK, at most 0.25. Consider PFKC, for which the enrichment ratio is at most 0.25.

RFEL: the enrichment ratio is at most 0.25. For the variant SPIW, the enrichment ratio is at most 0.25. As for MTFH, the enrichment ratio is 3.3. With QDRA, the enrichment ratio is at most 0.25. In the case of EHRV, the enrichment ratio was at most 0.25. Consider FFCA, for which the enrichment ratio was at most 0.25. With EGSC, the enrichment ratio was at most 0.25. In the case of RPRN it was at most 0.25. As for KDCH, the enrichment ratio was 2.1.

Consider IYNC, for which the enrichment ratio is at most 0.25. Consider VKIY, for which the enrichment ratio was at most 0.25. For RMMI, the enrichment ratio was at most 0.25. RPMP: the enrichment ratio is at most 0.25.

Take EDLQ: the enrichment ratio is at most 0.25. Take MEYT: the enrichment ratio turned out to be 5.58. Take RHKA: the enrichment ratio is at most 0.25. Take HCNF: the enrichment ratio is at most 0.25.

Regarding QLGK, the enrichment ratio was found to be 3.11.

On to WFKH, for which the enrichment ratio is at most 0.25. On to HGDS, for which the enrichment ratio was at most 0.25. LNTN: the enrichment ratio is at most 0.25. Regarding RGIN, the enrichment ratio is at most 0.25.

Take DGAI: the enrichment ratio was at most 0.25. Regarding VDDQ, the enrichment ratio is at most 0.25.

HSQQ: the enrichment ratio is at most 0.25. As to FWVE, the enrichment ratio was at most 0.25.

Take FKQI: the enrichment ratio is at most 0.25. Turning to IMDH, the enrichment ratio is at most 0.25. Regarding LCSC, the enrichment ratio was at most 0.25. On to WSDV, for which the enrichment ratio is at most 0.25. For YMME, the enrichment ratio came to 0.355.

TKTA: the enrichment ratio worked out at 7.23. Regarding MPCT, the enrichment ratio was at most 0.25.

As to MAHV, the enrichment ratio is 1.31. In the case of PGYP, the enrichment ratio is at most 0.25.

Consider SFGF, for which the enrichment ratio is at most 0.25. Regarding YYYS, the enrichment ratio is at most 0.25. In the case of KDAT it was at most 0.25; in that of RPLM, at most 0.25.

On to VHHG, for which the enrichment ratio is at most 0.25. With LSMH, the enrichment ratio is at most 0.25. Regarding GQFW, the enrichment ratio is at most 0.25. For IAEE, the enrichment ratio is at most 0.25. As to GNSF, the enrichment ratio was 1.14. Under QGDR stands at most 0.25; under HTYY, at most 0.25. For the variant VPHP, the enrichment ratio was at most 0.25. For WGVP, the enrichment ratio was at most 0.25.

Consider DLYF, for which the enrichment ratio is at most 0.25. For NELW, the enrichment ratio was at most 0.25. LILS: the enrichment ratio is at most 0.25.

Consider STCT, for which the enrichment ratio worked out at 7.85. Turning to HQDE, the enrichment ratio is at most 0.25. With VACF, the enrichment ratio was at most 0.25. Turning to QRRP, the enrichment ratio was at most 0.25. Regarding WQYL, the enrichment ratio was at most 0.25. Turning to YAPE, the enrichment ratio was at most 0.25.

On to RISL, for which the enrichment ratio was at most 0.25. In the case of VYIQ, the enrichment ratio is at most 0.25.

On to HTMC, for which the enrichment ratio was at most 0.25. In the case of QTVI, the enrichment ratio is at most 0.25. For GVGL, the enrichment ratio was found to be 1.14. GYRI: the enrichment ratio is at most 0.25. Under KVKI stands at most 0.25; under YGEP, at most 0.25; under ACIT, at most 0.25. For the variant NHTQ, the enrichment ratio is at most 0.25.

For PLYM, the enrichment ratio was at most 0.25. As for VMRI, the enrichment ratio was at most 0.25.

Take VVSS: the enrichment ratio was at most 0.25. Consider WLKY, for which the enrichment ratio is at most 0.25.

On to LWIK, for which the enrichment ratio is at most 0.25. In the case of GISL, the enrichment ratio came to 5.24. In the case of FKWI it was at most 0.25.

As to DICW, the enrichment ratio is at most 0.25. In the case of NTHS it was at most 0.25. In the case of THAH, the enrichment ratio is 4.2. Consider QPFV, for which the enrichment ratio is at most 0.25. In the case of NYHR, the enrichment ratio is at most 0.25.

With TYRN, the enrichment ratio was at most 0.25. On to SLSF, for which the enrichment ratio worked out at 11.7. Take EDRG: the enrichment ratio is at most 0.25. Under TIEC stands 2.84; under QCDH, 18.8. On to EACF, for which the enrichment ratio is at most 0.25. Take FEML: the enrichment ratio worked out at 1.01. Take MFWD: the enrichment ratio is at most 0.25. As to NYVF, the enrichment ratio is at most 0.25. Under GRHW stands at most 0.25; under SKHR, at most 0.25. In the case of YYYP, the enrichment ratio was at most 0.25.

As for KHHT, the enrichment ratio was at most 0.25.

Take DDWQ: the enrichment ratio was at most 0.25.

Turning to MMNL, the enrichment ratio is at most 0.25. Turning to YKSW, the enrichment ratio is at most 0.25. For MLWP, the enrichment ratio was at most 0.25. With AWVH, the enrichment ratio was at most 0.25. Turning to YVSC, the enrichment ratio came to 1.68.

For the variant GVYF, the enrichment ratio is at most 0.25.

In the case of GSFC, the enrichment ratio is at most 0.25. On to QMRT, for which the enrichment ratio is at most 0.25.

For the variant HSDE, the enrichment ratio is at most 0.25. In the case of DNHD it was at most 0.25; in that of IHST, at most 0.25; in that of TSDI, 7.13. On to TMPY, for which the enrichment ratio is at most 0.25. For the variant TVPV, the enrichment ratio is 0.328.

For QCLQ, the enrichment ratio stood at 4.49. Consider MMQH, for which the enrichment ratio is at most 0.25. With YDMA, the enrichment ratio was at most 0.25. As for WGYP, the enrichment ratio is at most 0.25.

For the variant FLAT, the enrichment ratio is at most 0.25. Consider KCFM, for which the enrichment ratio was at most 0.25.

Consider AYTC, for which the enrichment ratio is 0.272. In the case of QFID it was at most 0.25; in that of TWCI, at most 0.25. Turning to PHPL, the enrichment ratio is at most 0.25. In the case of VFII, the enrichment ratio is at most 0.25.

Consider KLMK, for which the enrichment ratio was at most 0.25. Turning to NCLA, the enrichment ratio came to 0.896.

In the case of YWID, the enrichment ratio was at most 0.25. As for SDYE, the enrichment ratio is at most 0.25.

Take LCCI: the enrichment ratio is at most 0.25. As for WLVS, the enrichment ratio was at most 0.25. In the case of YPCL it was at most 0.25. As to KCHF, the enrichment ratio is at most 0.25. Under AKEL stands at most 0.25; under WNLI, at most 0.25; under VDQR, at most 0.25.

In the case of VPVK, the enrichment ratio is at most 0.25.

These data come from a collection of fitness landscapes (doi:10.1126/science.1257360).
